Columns and labels:
[1] = ADC stability in pH 7.4 and 8.0 GSH buffer; format: physicochemical; conditions: 10 mM GSH
Description: (§1) After the conjugation and hydrolysis steps described above (see “DAR8 antibody drug conjugate/conjugator-antibody conjugate preparation”), conjugator-antibody conjugates were incubated in formulation buffer (pH 5.5 20 mM histidine buffer) or glutathione (GSH) buffer (pH 7.4 or 8.0), and the solutions were left at 22 or 37° C. for 1˜168 h. Hydrolysis status was monitored via reduced LCMS. Results are presented in Table 6, Table 7, and FIGS. 2A-23B.
(§2) Results of stability assessments of ADCs in GSH solution or formulation buffer are presented in Table 8 and Table 9, respectively, and FIGS. 24A-37B.

[2] = ADC stability in formulation buffer (20 mM histidine buffer); format: physicochemical; conditions: pH 5.5, 22 °C
Description: as §1, §2

H1650 cells = assay: ADCs in vivo efficacy study, H1650 model of lung cancer; set-up: species or system BALB/c Nude mice; conditions: for anti-tumor activity compared with non-RO conjugator ADC (ADC4-B): H1650 human lung cancer model (FIG. 44); for anti-tumor activity: H1650 human lung cancer model, i.v., 1 or 3 mg/kg QW*2 (FIG. 44)
Description: Female BALB/c Nude mice were subcutaneously implanted with 3× 10^6 H1650 cells per 200 μL PBS/matrigel in the right flank. After inoculation, tumor volumes were determined twice weekly in two dimensions using a caliper and were expressed in mm^3 using the formula V=0.5 (a×b^2) where a and b are the long and short diameters of the tumor, respectively. […] Partial regression (PR) was defined as tumor volume smaller than 50% of the starting tumor volume on the first day of dosing in three consecutive measurements and complete regression (CR) was defined as tumor volume less than 14 mm^3 in three consecutive measurements. Data are presented as mean tumor volume±standard error of the mean (SEM). Tumor growth inhibition (TGI) is calculated using the following formula: […]

[3] = ADC hydrophobicity evaluation by HIC (Method 1); format: physicochemical; conditions: later retention time = higher hydrophobic property
Description: HIC method: HPLC analysis was carried out under the following measurement conditions:
• HPLC system: Waters ACQUITY ARC HPLC System • Detector: measurement wavelength: 280 nm • Column: Tosoh Bioscience 4.6 μm ID×3.5 cm, 2.5 μm butyl-nonporous resin column • Column temperature: 25° C. • Mobile phase A: 1.5 M ammonium sulfate, 50 mM phosphate buffer, pH 7.0 • Mobile phase B: 50 mM phosphate buffer, 25% (V/V) isopropanol, pH 7.0 • Gradient program: 0% B-0% B (0 min-2 min), 0% B-100% B (2 min-15 min), 100% B-100% B (15 min-16 min), 100% B-0% B (16 min-17 min), 0% B-0% B (17 min-20 min) • Injected sample amount: 20 μg
ADC hydrophobicity evaluation: An ADC with a higher hydrophobic property would appear with a later retention time from HIC (hydrophobicity interaction column) chromatography. Results are presented in Table 4 using the DAR8 peak as a reference.

B1: ADC4-12o: Ifinatamab ADC of Table 4, open-ring (RO) conjugator (conjugate)
heavy: QVQLVQSGAEVKKPGSSVKVSCKASGYTFTNYVMHWVRQAPGQGLEWMGYINPYNDDVKYNEKFKGRVTITADESTSTAYMELSSLRSEDTAVYYCARWGYYGSPLYYFDYWGQGTLVTVSSASTKGPSVFPLAPSSKSTSGGTAALGCLVKDYFPEPVTVSWNSGALTSGVHTFPAVLQSSGLYSLSSVVTVPSSSLGTQTYICNVNHKPSNTKVDKRV[human IgG1 Fc skipped]
light: EIVLTQSPATLSLSPGERATLSCRASSRLIYMHWYQQKPGQAPRPLIYATSNLASGIPARFSGSGSGTDFTLTISSLEPEDFAVYYCQQWNSNPPTFGQGTKVEIKRTVAAPSVFIFPPSDEQLKSGTASVVCLLNNFYPREAKVQWKVDNALQSGNSQESVTEQDSKDSTYSLSSTLTLSKADYEKHKVYACEVTHQGLSSPVTKSFNRGEC
- MS DAR ([1]; 18 h, pH 7.4, 22 °C): 8.18
- MS DAR ([1]; 18 h, pH 7.4, 37 °C): 8.32
- MS DAR ([1]; 18 h, pH 8.0, 22 °C): 8.20
- MS DAR-T = 0 h [2]: 8.06
- MS DAR-T = 168 h [2]: 8.10
- anti-tumor activity compared with non-RO conjugator ADC (ADC4-B) (H1650 cells): superior
- anti-tumor activity (H1650 cells): potent anti-tumor activities
- DAR8 Species HIC Retention Time (min) (Method 1) [3]: 9.801 min

B2: ADC4-14o: Ifinatamab ADC of Table 4, open-ring (RO) conjugator (conjugate)
heavy: B1 heavy
light: B1 light
- MS DAR ([1]; 72 h, pH 7.4, 22 °C): 8.14
- MS DAR ([1]; 72 h, pH 7.4, 37 °C): 8.16
- MS DAR ([1]; 72 h, pH 8.0, 22 °C): 8.12
- MS DAR-T = 0 h [2]: 8.06
- MS DAR-T = 168 h [2]: 8.08
- anti-tumor activity compared with non-RO conjugator ADC (ADC4-B) (H1650 cells): superior
- anti-tumor activity (H1650 cells): potent anti-tumor activities
- DAR8 Species HIC Retention Time (min) (Method 1) [3]: 9.977 min

From patent publication US20250352659A1, “SELF-STABILIZING LINKER CONJUGATES” (priority 2023, published 2025)
